Measured values as given in patent US20240101716A1 (LA NOVA MEDICINES DEVELOPMENT, published 2024).

Legend:
[1] = target: T1, recombinant human PD-L1 His protein (human, UniProt Q9NZQ7 part only); test: SPR Biacore T200, PD-L1 His on chip, HCAb analyte
T1 construct: not shown: His tag
Experimental: (§1) Association and dissociation phases were 5 and 10 min, respectively. The chip was regenerated using Glycine/HCl pH 1.5.

[2] = target: T2, human PD-L1 on CHO-K1 cells (human, UniProt Q9NZQ7); test: cell-based or functional assay
[3] = target: T2, human PD-L1 on CHO-K1 cells; test: cell-based or functional assay; remark: listed apart in the source
[4] = target: T1, recombinant human PD-L1 His protein; test: SPR Biacore T200, PD-L1 His on chip, HCAb analyte; Table 21: later run beside the humanized HCAbs; PD-L1 His amine-coupled at no higher than 100 RU
Experimental: as §1

[5] = target: T1, recombinant human PD-L1 His protein; test: SPR Biacore T200, PD-L1 His on chip, HCAb analyte; remark: listed apart in the source
Experimental: (§2) Affinity constant (Kd) of each sdAb and HCAb was determined by surface plasmon resonance (SPR) on a BIAcore T200 instrument. Briefly, PD-L1 His was amine-coupled to a CMS sensor chip at a density of no higher than 100 RU. […] Flow rate was 30 μl/min in all experiments. Association and dissociation phases were 5 and 10 min, respectively. The chip was regenerated using Glycine/HCl pH 1.5. Binding curves at different concentrations of sdAbs and HCAbs were used to calculate the kinetic parameters kₒₙ, koff and KD.

[6] = target: T1, recombinant human PD-L1 His protein; test: SPR Biacore T200, PD-L1 His on chip, HCAb analyte; Table 13: first affinity determination of the parent HCAbs
Experimental: as §2

[7] = target: T1, recombinant human PD-L1 His protein; test: SPR affinity ranking, PD-L1/His as ligand on chip

T1 sequence (Q9NZQ7 19-239 limits assumed): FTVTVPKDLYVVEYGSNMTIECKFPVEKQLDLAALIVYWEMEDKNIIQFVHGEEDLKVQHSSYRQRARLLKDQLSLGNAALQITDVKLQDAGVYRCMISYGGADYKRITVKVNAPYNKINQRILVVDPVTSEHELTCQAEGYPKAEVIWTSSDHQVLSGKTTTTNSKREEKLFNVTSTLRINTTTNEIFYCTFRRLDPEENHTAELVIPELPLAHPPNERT
T2 sequence (Q9NZQ7 19-290): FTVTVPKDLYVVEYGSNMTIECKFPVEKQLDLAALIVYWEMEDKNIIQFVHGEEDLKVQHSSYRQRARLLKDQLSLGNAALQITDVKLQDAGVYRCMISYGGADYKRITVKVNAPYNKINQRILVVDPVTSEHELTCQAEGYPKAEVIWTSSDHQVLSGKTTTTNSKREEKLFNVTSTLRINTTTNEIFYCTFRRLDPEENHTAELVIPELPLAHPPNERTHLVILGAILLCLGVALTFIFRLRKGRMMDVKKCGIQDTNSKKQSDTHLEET

koff [1]: 0.00017 s⁻¹
kon [1]: 76000 M⁻¹ s⁻¹
EC50 of PD-L1-based blockade assay (luciferase reporter) [2]: 6.79 nM
EC50 of PD-L1-based blockade assay (luciferase reporter) [3]: 2.15 nM
Kd [4]: 2.2 nM
koff [5]: 2.44e-05 s⁻¹
kon [5]: 1.52e+06 M⁻¹ s⁻¹
Kd [6]: 0.0161 nM
Kd [7]: 1.43 nM
koff [7]: 0.000335 s⁻¹
kon [7]: 234000 M⁻¹ s⁻¹
B1: AS06730 HCAb (Fc fusion)
chain: QVQLVESGGGLVQAGGSLRLSCAASGRTFITYAIGWFRQAPGKEREFVSAINWSGSMTSYADSVKGRFTISRDNAKNTVYLQMNGLKPEDTAVYYCAAHRGAIAPIAQSVYTNWGQGTQVTVSS[skipping human IgG1 Fc]
notes: heavy chain-only antibody: sdAb fused with human Fc region; also called AS0730 HCAb

Read-outs that look alike come from different tables or passages of the source.
